Drawing on publication PMC4077589, this text covers binding for six molecules.

The chains behind the UniProt entries cited, without tags or fusion partners.
UniProt P53618: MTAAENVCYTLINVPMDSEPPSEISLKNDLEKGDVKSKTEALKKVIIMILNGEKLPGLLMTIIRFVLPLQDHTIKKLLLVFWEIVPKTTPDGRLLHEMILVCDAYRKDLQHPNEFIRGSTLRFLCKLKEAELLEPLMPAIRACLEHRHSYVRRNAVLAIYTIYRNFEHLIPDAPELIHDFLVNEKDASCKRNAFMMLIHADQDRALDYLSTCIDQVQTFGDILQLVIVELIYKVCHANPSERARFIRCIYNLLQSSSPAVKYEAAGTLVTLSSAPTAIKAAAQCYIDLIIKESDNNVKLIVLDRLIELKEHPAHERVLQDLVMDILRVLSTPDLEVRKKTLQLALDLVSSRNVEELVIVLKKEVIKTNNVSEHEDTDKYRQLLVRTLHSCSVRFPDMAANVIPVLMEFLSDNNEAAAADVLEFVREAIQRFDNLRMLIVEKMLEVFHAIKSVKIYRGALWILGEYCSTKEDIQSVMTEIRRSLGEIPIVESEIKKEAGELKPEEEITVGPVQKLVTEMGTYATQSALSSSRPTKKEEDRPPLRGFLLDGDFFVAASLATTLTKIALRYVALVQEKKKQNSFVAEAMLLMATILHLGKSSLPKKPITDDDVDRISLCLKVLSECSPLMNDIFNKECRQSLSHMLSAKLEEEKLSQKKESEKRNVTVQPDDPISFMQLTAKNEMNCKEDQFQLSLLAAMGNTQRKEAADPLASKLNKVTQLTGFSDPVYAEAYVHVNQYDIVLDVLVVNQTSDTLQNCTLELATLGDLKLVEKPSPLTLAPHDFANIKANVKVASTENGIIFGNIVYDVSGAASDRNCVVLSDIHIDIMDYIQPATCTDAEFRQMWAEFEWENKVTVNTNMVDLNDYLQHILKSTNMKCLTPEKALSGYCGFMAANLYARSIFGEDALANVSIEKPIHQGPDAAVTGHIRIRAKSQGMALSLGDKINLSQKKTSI

Changes are numbered by the printed parent chain. Read-outs that look alike come from different tables or passages of the source. No constants are given. Whether binding was seen depends on the method and setting. In cells and extracts the contact can be indirect. Some results given as binding are weak or reduced against the parent protein; the word gives no strength. For some of these results: Sequences can lack the tags named with a protein.

Assay [1] concerns the target T1, TMEM115-NT229 (human) (UniProt Q12893).
T1 sequence: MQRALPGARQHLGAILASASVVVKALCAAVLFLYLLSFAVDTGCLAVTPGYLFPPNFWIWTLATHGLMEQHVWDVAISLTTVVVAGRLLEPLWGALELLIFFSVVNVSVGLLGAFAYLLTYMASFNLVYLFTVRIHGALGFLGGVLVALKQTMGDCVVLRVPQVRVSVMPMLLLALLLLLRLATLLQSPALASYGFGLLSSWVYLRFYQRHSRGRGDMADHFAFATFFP
Kind of assay: co-IP; FLAG immunoprecipitation from lysates of transfected HEK293 cells; lysis buffer 50 mM Tris-HCl pH 7.5, 150 mM NaCl, 1% Triton X-100; 4°C; immunoblotting.

Assay [2] concerns the target T2, C-terminally FLAG-tagged full-length TMEM115 (TMEM115-FL-FLAG) (human) (UniProt Q12893).
T2 sequence: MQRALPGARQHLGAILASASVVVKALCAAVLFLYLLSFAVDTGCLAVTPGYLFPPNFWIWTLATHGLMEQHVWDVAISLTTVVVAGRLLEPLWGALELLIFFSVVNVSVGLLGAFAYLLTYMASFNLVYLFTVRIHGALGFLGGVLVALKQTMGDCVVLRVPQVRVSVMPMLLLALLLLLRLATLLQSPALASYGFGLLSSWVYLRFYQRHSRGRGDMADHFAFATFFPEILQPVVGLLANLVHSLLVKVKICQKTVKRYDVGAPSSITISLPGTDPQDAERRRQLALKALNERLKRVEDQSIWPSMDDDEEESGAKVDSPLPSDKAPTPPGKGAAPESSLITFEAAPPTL
Described as above.

The target of assay [3] is T3, TMEM115-NT205 (human) (UniProt Q12893).
T3 sequence: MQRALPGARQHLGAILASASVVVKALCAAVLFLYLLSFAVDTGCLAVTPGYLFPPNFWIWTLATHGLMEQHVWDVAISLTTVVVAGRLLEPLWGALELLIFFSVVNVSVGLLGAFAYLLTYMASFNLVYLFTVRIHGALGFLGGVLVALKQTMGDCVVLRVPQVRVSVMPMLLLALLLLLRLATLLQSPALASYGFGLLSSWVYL
The description is as above.

For assay [4], the target named is T1, TMEM115-NT229 (human). The description is as above. This is another data set of the same source.
Assay [5] concerns the target T4, TMEM115-205Δ (human) (UniProt Q12893).
T4 sequence: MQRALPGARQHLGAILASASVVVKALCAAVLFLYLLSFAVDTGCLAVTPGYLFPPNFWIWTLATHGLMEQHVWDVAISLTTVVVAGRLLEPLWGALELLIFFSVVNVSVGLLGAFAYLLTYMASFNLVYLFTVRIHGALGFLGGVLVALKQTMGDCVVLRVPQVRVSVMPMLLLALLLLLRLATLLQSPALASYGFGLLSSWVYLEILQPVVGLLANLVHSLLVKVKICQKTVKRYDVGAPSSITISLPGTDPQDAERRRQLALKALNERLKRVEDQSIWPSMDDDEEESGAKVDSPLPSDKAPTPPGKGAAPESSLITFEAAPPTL
Described as above.

Assay [6] addresses T5, TMEM115-ΔCC (human) (UniProt Q12893).
T5 sequence: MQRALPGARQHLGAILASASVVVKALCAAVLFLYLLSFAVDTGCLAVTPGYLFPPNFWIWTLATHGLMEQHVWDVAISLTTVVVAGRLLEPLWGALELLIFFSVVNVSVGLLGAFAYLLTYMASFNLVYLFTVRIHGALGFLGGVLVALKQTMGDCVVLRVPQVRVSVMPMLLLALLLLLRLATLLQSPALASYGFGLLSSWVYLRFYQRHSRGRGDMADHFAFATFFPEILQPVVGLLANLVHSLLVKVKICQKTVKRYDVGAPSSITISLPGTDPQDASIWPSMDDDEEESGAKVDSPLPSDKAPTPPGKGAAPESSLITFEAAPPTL
Described as above.

Assay [7] deals with T2, C-terminally FLAG-tagged full-length TMEM115 (TMEM115-FL-FLAG) (human). The description is as above. The source holds these as a separate data set.
Assay [8] addresses T6, TMEM115-A1 (human) (UniProt Q12893).
T6 sequence: T2 sequence with E281A, R282A, R283A, R284A, Q285A
The description is as above.

Assay [9] has as its target T7, TMEM115-A2 (human) (UniProt Q12893).
T7 sequence: T2 sequence with L286A, L288A, K289A, L291A, N292A, E293A, R294A, L295A
The description is as above.

For assay [10], the target named is T8, ERGIC53–GFP (UniProt P49257).
T8 sequence: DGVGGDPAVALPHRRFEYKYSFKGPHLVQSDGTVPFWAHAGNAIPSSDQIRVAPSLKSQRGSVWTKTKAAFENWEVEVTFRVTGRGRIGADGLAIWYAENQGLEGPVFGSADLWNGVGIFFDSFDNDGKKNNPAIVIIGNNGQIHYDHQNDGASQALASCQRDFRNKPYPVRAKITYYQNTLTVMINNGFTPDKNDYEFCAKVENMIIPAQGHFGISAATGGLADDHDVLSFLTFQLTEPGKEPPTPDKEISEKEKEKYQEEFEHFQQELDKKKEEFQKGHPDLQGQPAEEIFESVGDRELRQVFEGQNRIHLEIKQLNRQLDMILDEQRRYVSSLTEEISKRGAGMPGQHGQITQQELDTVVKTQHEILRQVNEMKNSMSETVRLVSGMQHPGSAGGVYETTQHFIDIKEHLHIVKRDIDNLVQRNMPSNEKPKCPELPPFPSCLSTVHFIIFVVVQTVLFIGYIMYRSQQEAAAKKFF
The assay is described as follows: co-IP; GFP immunoprecipitation from lysates of HEK293 cells transfected with TMEM115-FL–FLAG and ERGIC53–GFP; immunoblotting.

Assay [11] addresses T9, full-length TMEM115–FLAG–HIS (in vitro translated) (human), Q12893.
T9 chain: T2 sequence
Kind of assay: co-IP; in vitro translated products combined in cell lysis buffer, FLAG immunoprecipitation, beads washed with cell lysis buffer containing 150 mM NaCl. As to conditions: remark: other sources report otherwise.

“endogenous β-COP (from UniProt P53618 1-953)”: the binding entry in assay [1] and in assay [2] was “binds” throughout.

B1: C-terminally Myc-tagged full-length TMEM115 (TMEM115–Myc) (protein, UniProt Q12893 1-351)
chain: T2 sequence
Consider B1, for which the binding result in assay [3], in assay [4], in [5], in assay [6], in [7] and in assay [8] was “binds” throughout. Besides, the binding entry in assay [9] is “binds”.

B2: C-terminally FLAG-tagged full-length TMEM115 (TMEM115-FL-FLAG) (protein, UniProt Q12893 1-351)
chain: T2 sequence
On to B2, for which the binding result in [10] was “binds”.

B3: Myc-tagged COG6 (in vitro translated), Q9Y2V7 1-657 (protein)
chain: MAEGSGEVVAVSATGAANGLNNGAGGTSATTCNPLSRKLHKILETRLDNDKEMLEALKALSTFFVENSLRTRRNLRGDIERKSLAINEEFVSIFKEVKEELESISEDVQAMSNCCQDMTSRLQAAKEQTQDLIVKTTKLQSESQKLEIRAQVADAFLSKFQLTSDEMSLLRGTREGPITEDFFKALGRVKQIHNDVKVLLRTNQQTAGLEIMEQMALLQETAYERLYRWAQSECRTLTQESCDVSPVLTQAMEALQDRPVLYKYTLDEFGTARRSTVVRGFIDALTRGGPGGTPRPIEMHSHDPLRYVGDMLAWLHQATASEKEHLEALLKHVTTQGVEENIQEVVGHITEGVCRPLKVRIEQVIVAEPGAVLLYKISNLLKFYHHTISGIVGNSATALLTTIEEMHLLSKKIFFNSLSLHASKLMDKVELPPPDLGPSSALNQTLMLLREVLASHDSSVVPLDARQADFVQVLSCVLDPLLQMCTVSASNLGTADMATFMVNSLYMMKTTLALFEFTDRRLEMLQFQIEAHLDTLINEQASYVLTRVGLSYIYNTVQQHKPEQGSLANMPNLDSVTLKAAMVQFDRYLSAPDNLLIPQLNFLLSATVKEQIVKQSTELVCRAYGEVYAAVMNPINEYKDPENILHRSPQQVQTLLS
With B3, the binding result in assay [11] is recorded as “binds”.

B4: endogenous COG3 (protein, UniProt Q96JB2 1-828)
chain: MAEAALLLLPEAAAERDAREKLALWDRRPDTTAPLTDRQTDSVLELKAAAENLPVPAELPIEDLCSLTSQSLPIELTSVVPESTEDILLKGFTSLGMEEERIETAQQFFSWFAKLQTQMDQDEGTKYRQMRDYLSGFQEQCDAILNDVNSALQHLESLQKQYLFVSNKTGTLHEACEQLLKEQSELVDLAENIQQKLSYFNELETINTKLNSPTLSVNSDGFIPMLAKLDDCITYISSHPNFKDYPIYLLKFKQCLSKALHLMKTYTVNTLQTLTSQLLKRDPSSVPNADNAFTLFYVKFRAAAPKVRTLIEQIELRSEKIPEYQQLLNDIHQCYLDQRELLLGPSIACTVAELTSQNNRDHCALVRSGCAFMVHVCQDEHQLYNEFFTKPTSKLDELLEKLCVSLYDVFRPLIIHVIHLETLSELCGILKNEVLEDHVQNNAEQLGAFAAGVKQMLEDVQERLVYRTHIYIQTDITGYKPAPGDLAYPDKLVMMEQIAQSLKDEQKKVPSEASFSDVHLEEGESNSLTKSGSTESLNPRPQTTISPADLHGMWYPTVRRTLVCLSKLYRCIDRAVFQGLSQEALSACIQSLLGASESISKNKTQIDGQLFLIKHLLILREQIAPFHTEFTIKEISLDLKKTRDAAFKILNPMTVPRFFRLNSNNALIEFLLEGTPEIREHYLDSKKDVDRHLKSACEQFIQQQTKLFVEQLEEFMTKVSALKTMASQGGPKYTLSQQPWAQPAKVNDLAATAYKTIKTKLPVTLRSMSLYLSNKDTEFILFKPVRNNIQQVFQKFHALLKEEFSPEDIQIIACPSMEQLSLLLLVSK
For B4, the binding result in [4] is listed as “binds”.

B5: Myc-tagged COG3 (in vitro translated), Q96JB2 1-828 (protein)
chain: B4 chain
On to B5, for which, in assay [11], the binding entry is on record as “binds”.
